# In PMC6919601, “Identification of Plasmodium dipeptidyl aminopeptidase allosteric inhibitors by high throughput screening” (PLoS ONE, 2019):
# Among all 110,000 compounds or so, about 230 (0.21%) showed an effect of 50% or more. Some of the results follow.
# Biological target: DPAP1 (Plasmodium falciparum, UniProt Q8IIJ9)
# Assay: primary screen, percent inhibition; read by cleavage of a fluorogenic dipeptide substrate; higher = more effect of the substance
# Parameters: species or system P. falciparum D10 trophozoite lysates; single well
# 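Also: 30 min substrate incubation versus DMSO and 10 µM JCP410 controls.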
# DPAP1, sequence (Q8IIJ9 whole entry, looked up): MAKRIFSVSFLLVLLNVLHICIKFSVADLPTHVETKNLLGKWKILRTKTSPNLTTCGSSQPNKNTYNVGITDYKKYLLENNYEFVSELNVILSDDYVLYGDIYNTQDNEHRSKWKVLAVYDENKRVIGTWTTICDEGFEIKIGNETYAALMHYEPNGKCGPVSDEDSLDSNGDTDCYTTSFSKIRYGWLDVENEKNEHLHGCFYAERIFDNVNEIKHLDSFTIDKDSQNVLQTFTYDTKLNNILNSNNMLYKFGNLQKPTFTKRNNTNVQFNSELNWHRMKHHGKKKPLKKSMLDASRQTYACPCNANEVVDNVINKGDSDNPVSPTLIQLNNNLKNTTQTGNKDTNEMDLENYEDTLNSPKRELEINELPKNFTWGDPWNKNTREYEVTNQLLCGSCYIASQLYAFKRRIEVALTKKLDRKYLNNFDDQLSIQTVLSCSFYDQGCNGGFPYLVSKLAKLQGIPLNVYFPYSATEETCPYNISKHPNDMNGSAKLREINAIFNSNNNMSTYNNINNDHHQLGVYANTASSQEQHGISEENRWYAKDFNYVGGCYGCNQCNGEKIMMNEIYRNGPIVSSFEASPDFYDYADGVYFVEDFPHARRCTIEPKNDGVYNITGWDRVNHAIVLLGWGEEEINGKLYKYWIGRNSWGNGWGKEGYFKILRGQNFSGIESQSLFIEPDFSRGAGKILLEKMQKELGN
row,SMILES,% Inhibition @ 10 uM
1,CN1CCCN(Cc2cccc(C(F)(F)F)c2)CC1,-0.0404%
2,COC(=O)c1ccc(NC(=O)c2cccc(Br)c2)cc1,-3.35%
3,CC(=O)Nc1ccc(NC(=O)C2CC2c2ccccc2)cc1 (stereo not shown),5.93%
4,O=C(COCc1cc(-c2ccc3c(c2)OCO3)on1)Nc1cccnc1,-1.86%
5,OCCSc1nnnn1-c1ccccc1,-5.35%
6,O=C(O)C1CCCN1C(=O)Cc1ccccc1 (stereo not shown),-1.69%
7,C=CCN1C(=O)C2(Nc3ccccc3C(=O)N2c2ccccc2OC)c2ccccc21 (stereo not shown),2.48%
8,O=C(Cc1ccccc1)NCc1cccs1,0.163%
9,Cc1cc(C)c(C(=O)/C=C/c2ccc3c(c2)OCO3)c(O)n1,-0.197%
10,C=Cc1cccc(C(=O)N[C@@H](C[C@H](C)c2ccccc2)C(=O)N[C@@H](CC)C(=O)c2nc3ccccc3o2)c1,1.16%
11,N#Cc1ccc(NC(=O)c2cccc(C(F)(F)F)c2)cc1,1.83%
12,Cc1ccc(OCC(=O)Nc2cccc(C)c2C)cc1,-1.42%
13,COc1ccc(-c2nnc(SCC(=O)NCc3ccccc3)n2-c2ccccc2)cc1OC,-1.68%
14,Cc1sc2ncn(CC(=O)N3CCC(C)CC3)c(=O)c2c1-c1ccc(Br)cc1,0.163%
15,CC1=CC2=NC(=O)/C(=C\c3ccc(OCc4ccc(C)cc4)cc3)C(=N)N2O1,-1.43%
16,Cc1cccc(NCc2ccc(C)o2)c1,-1.5%
17,CC(C)C[C@H](NC(=O)OCc1ccccc1)C(=O)NC(CCc1ccccc1)C(O)C[N+](=O)[O-] (stereo partly shown),0.744%
18,Cc1ccccc1C(=O)Nc1ccc(N)cc1,-10.2%
19,COc1cccc(C(=O)Nc2ccc(S(=O)(=O)Nc3nccc(C)n3)cc2)c1,-4.18%
20,CCC(C)C(=O)Nc1ccc(S(=O)(=O)N2CCC(C)CC2)cc1 (stereo not shown),-1.63%
21,Cc1c(C(=O)NCCCN2CCCC2=O)oc2c1-c1nn(Cc3cccc(Cl)c3)cc1CC2,7.13%
22,COc1ccccc1C1C2=C(O)CC(C)(C)CC2=Nc2ccc3ncccc3c21 (stereo not shown),-2.77%
23,O=C(O)c1ccccc1N(Cc1ccccc1)C(=O)c1ccco1,0.512%
24,CC(C)(C)NC(=O)Cn1cc(C(=O)c2ccco2)c2ccccc21,-1.33%
25,CC1(C)CC(=O)C2=C(C1)NC(=O)CC2c1ccc(-c2ccccc2)cc1 (stereo not shown),9.42%
26,Cc1[nH]c2ccccc2c1Cc1nnc(SCC(=O)NCc2ccco2)o1,-2.75%
27,Cc1cc2nc(C[n+]3ccc4ccccc4c3)[nH]c2cc1C,2.38%
28,CCC1CCCCN1S(=O)(=O)c1ccc(S(=O)(=O)N2CCN(c3ncccn3)CC2)cc1 (stereo not shown),3.81%
